Assay results: the supplement of paper PMC11880418
Structures can show the parent of a compound that is named as a salt. The list shows a part of the results. The data scatter; read single values as rough. Residues, ends and D or L forms follow the SMILES beside them.

Columns and labels:
Experiment in all cases: ALDHbr (CSC) cell proportion score relative to DMSO vehicle (ratio to DMSO); breast (SUM159) / gastric (MKN45) / pancreatic (PANC1) / colon cancer lines; ALDHbr cells have high ALDH activity and are rich in cancer stem cells (CSC); higher = more CSC (ALDHbr) cells remaining
Conditions in all cases: 10 µM; 72 h
[1] = test system: MKN45
[2] = test system: PANC1
[3] = test system: SUM159
[4] = test system: T84
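Also: High-content imaging of ALDEFLUOR-stained cells with Hoechst-labelled nuclei in 384-well plates, triplicate wells, scored as Z-score against 0.1% DMSO vehicle, negative meaning fewer ALDHbr cells.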

Structure (SMILES)	ALDHbr [1]	ALDHbr [2]	ALDHbr [3]	ALDHbr [4]
O=C1c2ccccc2C(=O)C1c1ccccc1 [Phenindione]	1.17	0.888	1.11	0.784
CC(=O)CCCCn1c(=O)c2c(ncn2C)n(C)c1=O [Pentoxifylline]	0.923	0.853	1.23	0.826
Cn1cnc2c1c(=O)[nH]c(=O)n2C [Theobromine]	1.12	0.843	1	0.963
CN(C)CC/C=C1/c2ccccc2Sc2ccc(Cl)cc21 [Chlorprothixene hydrochloride]	0.857	0.912	0.462	0.814
O=C(O)Cc1ccccc1Nc1c(Cl)cccc1Cl [Diclofenac sodium]	0.99	1.04	0.97	0.914
CN1CCC(=C2c3ccccc3Sc3ccccc32)CC1 [Pimethixene maleate]	0.945	1.08	0.604	0.896
CCN(CC)C(=O)N1CCN(C)CC1 [Diethylcarbamazine citrate]	1.07	0.911	1.02	1.1
Nc1ccccc1S(N)(=O)=O [2-Aminobenzenesulfonamide]	1.01	0.921	1.1	0.975
O=c1cc(-c2ccc(O)c(O)c2)oc2cc(O)cc(O)c12 [Luteolin]	0.704	0.374	2.51	0.691
C[C@H](CCC(=O)O)[C@H]1CC[C@H]2[C@@H]3C(=O)C[C@@H]4CC(=O)CC[C@]4(C)[C@H]3CC(=O)[C@]12C [Dehydrocholic acid]	0.999	0.978	1.05	1.03
CCCc1nn(C)c2c(=O)[nH]c(-c3cc(S(=O)(=O)N4CCN(C)CC4)ccc3OCC)nc12 [Sildenafil]	0.852	0.62	0.992	0.994
Nc1ccc(S(=O)(=O)Nc2ccc(Cl)nn2)cc1 [Sulfachloropyridazine]	1.15	0.966	1.43	0.923
CCC(C)n1ncn(-c2ccc(N3CCN(c4ccc(OCC5COC(Cn6cncn6)(c6ccc(Cl)cc6Cl)O5)cc4)CC3)cc2)c1=O (centres undefined) [Itraconazole]	0.121	0.952	0.784	0.354
NNc1nncc2ccccc12 [Hydralazine hydrochloride]	1.39	1.02	1.32	0.868
Cc1ccc(S(=O)(=O)NC(=O)NN2CCCCCC2)cc1 [Tolazamide]	0.975	0.958	1	0.916
NCCCC[C@H](N[C@@H](CCc1ccccc1)C(=O)O)C(=O)N1CCC[C@H]1C(=O)O [Lisinopril]	1	0.83	1.02	1.08
CNNCc1ccc(C(=O)NC(C)C)cc1 [Procarbazine hydrochloride]	1.29	0.991	1.25	1.21
C=CC[N@@+]12CC[C@@]34c5ccccc5N5/C=C6/[C@H]7C[C@H]8[C@@]9(CC[N@@+]8(CC=C)C/C7=C/CO)c7ccccc7N(/C=C(/[C@@H](C[C@@H]31)/C(=C\CO)C2)[C@H]54)[C@@H]69 [Alcuronium chloride]	1.15	0.922	0.936	0.954
CCn1cc(C(=O)O)c(=O)c2cnc(N3CCNCC3)nc21 [Pipemidic acid]	1.12	0.9	1.03	1.02
O=c1[nH]c(=O)n([C@H]2C[C@H](O)[C@@H](CO)O2)cc1C(F)(F)F [Trifluridine]	0.435	1.15	1.04	0.262
Cn1c(NCCN(CCO)CCCc2ccc([N+](=O)[O-])cc2)cc(=O)n(C)c1=O [Nifekalant]	1.1	0.839	0.849	0.932
CCCCOC(=O)c1ccc(N)cc1 [Butamben]	1.05	0.3	0.941	0.778
O=C1CC[C@@H](C(=O)N2CSC[C@H]2C(=O)O)N1 [Pidotimod] (HELM PEPTIDE1{[Glp].[O=C(O)[C@@H]1CSCN1[*:1]]}$$$$V2.0)	1.08	0.917	1.09	1.12
CC(C(=O)O)c1ccc(C(=O)c2ccccc2)s1 (centres undefined) [Tiaprofenic acid]	1.12	0.937	0.9	0.93
O=C(O)CCC(=O)c1ccc(-c2ccccc2)cc1 [Fenbufen]	0.994	0.9	0.925	0.833
CC(=O)N1CCN(c2ccc(OCC3COC(Cn4ccnc4)(c4ccc(Cl)cc4Cl)O3)cc2)CC1 (centres undefined) [Ketoconazole]	0.726	0.513	0.854	0.682
